The record followed here is article PMC12136788.

Sequences and labels used below:
T1: UNK ZnF1-6 (called full-length) (human, UniProt Q9C0B0 30-357)
T1 sequence: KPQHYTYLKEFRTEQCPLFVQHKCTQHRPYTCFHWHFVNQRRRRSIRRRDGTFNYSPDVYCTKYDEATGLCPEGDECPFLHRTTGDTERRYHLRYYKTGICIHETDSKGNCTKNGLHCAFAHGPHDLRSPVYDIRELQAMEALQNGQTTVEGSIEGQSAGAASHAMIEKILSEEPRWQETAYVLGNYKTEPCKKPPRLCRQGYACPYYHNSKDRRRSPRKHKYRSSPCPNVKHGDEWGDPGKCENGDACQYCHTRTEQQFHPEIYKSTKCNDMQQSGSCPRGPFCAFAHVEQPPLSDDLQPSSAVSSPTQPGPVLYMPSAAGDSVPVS

B1: chr8:52110837:52113338:-|three_prime_utr|ENSG00000147488|control|control|control (ssRNA)
RNA: GGGAGUUCUACAGUCCGACGAUCCCCCGGAAUGCAAAGCUCUACUGGAAAGUAUCAAACAGGCAGUGAAGGGUAUCCAUGUGUAGGAUCACAGCGCUGCCGGGCAACAGAAGUUACCAACAGCAGUAAACUCCAGAUGGAUCUCAACAGAGGAUUGAGCAUCA
B2: chr1:93353930:93354034:+|CDS|ENSG00000117505|unk|FALSE|unique (ssRNA)
RNA: GGGAGUUCUACAGUCCGACGAUCUUUGGGAUUUGGCUCUUACAUCAGUGAAGUAAAAGAAGUCUUGCAAGAGUGUAAAACAGUAGCAUUAAAAAGAAGAAAGGCCAGUUCUCGUUUGGAAAACCUUGGCAUUCCUGAAGAAGACAACAGAGGAUUGAGCAUCA
B3: chr11:56232108:56233062:-|CDS|ENSG00000181718|control|control|control (ssRNA)
RNA: GGGAGUUCUACAGUCCGACGAUCGACAAUCCUCUUCAUGUAUGUGAGACCAAGUUCCAGCUAUGCUUCGGACCAUGACAUGAUAGUGUCAAUAUUUUACACCAUUGUGAUUCCCUUGCUGAAUCCCGUCAUCUACAGUUUGAGCAACAGAGGAUUGAGCAUCA
B4: chr20:57651677:57651767:-|3pUTR|ENSG00000124225|msi1_unk|total|mutant (ssRNA)
RNA: GGGAGUUCUACAGUCCGACGAUCGUUGAGCUGUGUCUUGAAGGCAAAAGAAAAAAAAUUUCUACAGCCGUCUUUCUUGUUUCCCGUUGAGCUGCGUGCGUGAAUGCUUAUUUUCUUUUGUUUAUGAUAAUUUCACUUAACUUUCAACAGAGGAUUGAGCAUCA
B5: chr1:1785892:1785993:-|3pUTR|ENSG00000078369|msi1|FALSE|unique (ssRNA)
RNA: GGGAGUUCUACAGUCCGACGAUCUUUACUCUUAGAAUCGCAUGCUGUAGAAAUGCUCAAAAGUGCAUAUGGGACUCAGUCCUUAGGUGUUCUUUUUCUUUUAAGAAAUAACCUCUUACAGUUGUAACCAUUGCGGCUCUGUCCCAACAGAGGAUUGAGCAUCA
B6: chr18:21869459:21869560:+|3pUTR|ENSG00000101752|msi1|FALSE|unique (ssRNA)
RNA: GGGAGUUCUACAGUCCGACGAUCUAAAAGAUGGUCUUUAGUGCACGUGUAUCAUUAUAUACACGUUUUAAAGUCAUAUUGCUUAGCUUGUUAAUAAUGAUUCUGCAUGUGUGCUGGGUUUGGGUAAUUCUUUAAAGGAAGUUUCAACAGAGGAUUGAGCAUCA

The other results are listed elsewhere or left out.

For the assay, the target named is T1, UNK ZnF1-6 (called full-length). In words: nsRBNS (natural sequence RNA bind-n-seq); RBNS binding buffer (assumed for nsRBNS): 25 mM Tris pH 7.5, 150 mM KCl, 3 mM MgCl2, 0.01% Triton X-100, 500 ug/ml BSA, 20 U/ml SUPERase-In, 4 C; UNK is unkempt and MSI1 is Musashi-1; names of the RNAs are library labels; protein concentration not given here; high values mean tight binding.
Take B1: the binding signal is 0.449 enrichment R.
The figure for B2 is 0.946 enrichment R; for B3 it is 0.289 enrichment R; for B4 it is 1.06 enrichment R.
For the molecule B5, the binding signal turned out to be 0.37 enrichment R.
The figure for B6 is 0.493 enrichment R.
